{
  "source": "PubChem BioAssay AID485344",
  "about": "(National Center for Advancing Translational Sciences (NCATS), 2010)",
  "note": "In all, about 340,000 compounds went through this assay and about 6,900 (2%) were called active. No stated cut-off is given here; in the data, active means inhibition above about 30%; inactive means below that, where a call was filed. Only a part is listed here, and it is no random draw. Where no call is shown, the source filed none.",
  "data": [
    {"target": "D(2) dopamine receptor (Homo sapiens) (UniProt P14416)", "sequence (P14416 whole entry, looked up)": "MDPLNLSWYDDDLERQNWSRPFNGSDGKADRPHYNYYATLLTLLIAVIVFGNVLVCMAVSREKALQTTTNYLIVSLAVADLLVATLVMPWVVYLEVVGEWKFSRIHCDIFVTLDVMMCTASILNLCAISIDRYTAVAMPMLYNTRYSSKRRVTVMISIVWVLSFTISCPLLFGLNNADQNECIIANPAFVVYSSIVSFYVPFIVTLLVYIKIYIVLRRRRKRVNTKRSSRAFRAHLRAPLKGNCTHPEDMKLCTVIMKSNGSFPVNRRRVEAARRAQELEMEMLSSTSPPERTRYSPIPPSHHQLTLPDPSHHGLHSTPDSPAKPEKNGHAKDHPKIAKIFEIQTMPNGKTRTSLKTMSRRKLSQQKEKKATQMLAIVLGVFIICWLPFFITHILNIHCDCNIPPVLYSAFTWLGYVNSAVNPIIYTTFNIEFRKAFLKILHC", "test": "HTS Assay for Allosteric Antagonists of the Human D2 Dopamine Receptor: Primary Screen for Antagonists; further: 0% is about no effect", "settings": "HEK293 TREx D2 cells, calcium flux, dopamine EC80; at 10 µM; stronger effect = higher value", "how_it_was_run": "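Compounds are added to dye-loaded, induced HEK293 T-REx cells coupled to calcium release via D2; after a 3 min kinetic read an EC80 dopamine stimulus is given and fluorescence is recorded for 3 more min.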", "values": [
      {"smiles": "Cc1ccccc1C(=O)NCc1ccc2c(c1)CCN2C(=O)c1ccc(F)cc1", "inhibition": "9.79%"},
      {"smiles": "CC1CCC(NC(=O)CCc2cn(Cc3ccc(F)cc3)c3ccccc23)CC1", "note": "(centres undefined)", "inhibition": "-9.95%"},
      {"smiles": "Cc1nn2c(=O)cc(COC(=O)COc3ccccc3C)nc2s1", "inhibition": "13.5%"},
      {"smiles": "O=C(O)C1=CC(c2ccc(Br)cc2)n2ncnc2N1", "note": "(centres undefined)", "inhibition": "8.34%"},
      {"smiles": "CCOc1ccc(CCNC(=O)c2sc3nc4n(c(=O)c3c2C)CCCC4)cc1", "inhibition": "-1.88%"},
      {"smiles": "O=C(O)Cn1nc(N2CCN(c3ccccc3)CC2)ccc1=O", "inhibition": "18%"},
      {"smiles": "COc1ccccc1C1CCN(Cc2ccccc2Cl)CC1", "inhibition": "active: 91.9%"},
      {"smiles": "Cc1sc2c(c1C)c(=O)n(Cc1ccccc1)c(=O)n2CC(=O)Nc1cccc(Cl)c1", "inhibition": "1.68%"},
      {"smiles": "Cc1cc(C)c(OCC(O)CN2CCN(c3ccccn3)CC2)c(C)c1", "note": "(centres undefined)", "inhibition": "active: 78.1%"},
      {"smiles": "CCc1ccc(S(=O)(=O)c2cnc(SCC(=O)Nc3ccc(OC)cc3OC)[nH]c2=O)cc1", "inhibition": "6.98%"},
      {"smiles": "Cc1ccc(N2C(=O)C(CC(=O)Nc3ccccc3)N(CCC3=CCCCC3)C2=O)cc1", "note": "(centres undefined)", "inhibition": "6.99%"},
      {"smiles": "Cn1c2ccc(F)cc2c2nnc(SCCN3CCCCC3)nc21", "inhibition": "18.6%"},
      {"smiles": "CCOc1ccccc1N(CC)C(=O)c1cc2ccc3cccnc3c2[nH]1", "inhibition": "1.46%"},
      {"smiles": "CCOc1ccccc1NC(=O)CN1C(=O)C(=O)c2ccccc21", "inhibition": "-9.26%"},
      {"smiles": "CC(C)NC(=O)c1sc2ncccc2c1-n1cccc1", "inhibition": "17.7%"},
      {"smiles": "CCCc1cc(=O)oc2cc(C)c3c(-c4ccccc4)c(C)oc3c12", "inhibition": "-4.07%"},
      {"smiles": "O=C(CCS(=O)(=O)c1nc(-c2cccs2)cc(C(F)(F)F)n1)Nc1cccc(O)c1", "inhibition": "16.3%"},
      {"smiles": "COc1ccccc1CNC(=O)c1cc(-c2ccccc2)n[nH]1", "inhibition": "7.1%"},
      {"smiles": "Cc1oc(-c2cccc(Cl)c2)nc1CSCC(=O)O", "inhibition": "-26.5%"},
      {"smiles": "CCN(C(=O)c1cc2c(Cl)nc3ccc(C)cc3c2s1)c1cc(OC)ccc1OC", "inhibition": "-6.41%"},
      {"smiles": "CCC(=O)Nc1ccc(C)cc1-c1nc2ccccc2n(Cc2ccccc2)c1=O", "inhibition": "26.4%"},
      {"smiles": "COc1ccccc1C(=O)Nc1c(C(=O)Nc2ccc(C)cc2)oc2ccccc12", "inhibition": "13.7%"},
      {"smiles": "COc1ccc(NC(=O)C2CCCN2S(=O)(=O)c2ccc3c(c2)CCCC(=O)N3)cc1Cl", "note": "(centres undefined)", "inhibition": "2.84%"},
      {"smiles": "COc1cc(C2CC(=O)Nc3cc4c(cc32)OCCO4)cc(OC)c1O", "note": "(centres undefined)", "inhibition": "4.58%"},
      {"smiles": "Cc1oncc1C(=O)Nc1ccc(C(F)(F)F)cc1", "inhibition": "active: 35.6%"},
      {"smiles": "CCCCC(=O)Nc1ccc(OCc2cc(=O)n3ccc(C)cc3n2)cc1", "inhibition": "10.6%"},
      {"smiles": "COc1ccccc1NC(=S)NNC(=O)c1nn(C)c(C)c1Cl", "inhibition": "active: 82.2%"},
      {"smiles": "CCCCN(CCCC)c1nc(-c2ccccc2)nc2ccccc12", "inhibition": "-23%"},
      {"smiles": "CCOc1ccc(CCNC(=O)c2cnc3c(-c4ccccc4)c(C)nn3c2C)cc1OCC", "inhibition": "-1.15%"}
    ]}
  ]
}
